PubChem BioAssay AID1345082 (National Center for Advancing Translational Sciences (NCATS), 2018)
The whole screen tested about 94,000 compounds, of which about 4,000 (4.3%) were called active. The inconclusive results got no clear call from the source; some entries with a clear call stand among them for comparison. The call rests on the fitted dose curve; in most records, active means well fitted inhibition curve with a large enough effect; inconclusive means small, poorly fitted or top-dose-only effect; inactive means no such curve, though single readings can be large or run the other way. Where the call is inconclusive, the potency comes from a doubtful curve fit.

Assay: Cytotoxic Profiling in NIH 3T3 Cell Line of Diverse Libraries Using Quantitative High-Throughput Screening; further: nearly all actives have a fitted effect of over 55% in size
Conditions: NIH 3T3 viability, CellTiter-Glo ATP luminescence, 48-72 h; series mostly up to 96.7 µM
How it was run: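 Cytotoxicity is measured as loss of cellular ATP: NIH 3T3 cells (400/well) are exposed to compound for 48 or 72 hr at 37 °C, then CellTiter-Glo luminescence is imaged after 10 min at room temperature.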
Potency means the concentration at half of the fitted maximal effect; tags describe the fitted curve by direction and shape.

Row | SMILES | Potency
1 | Cc1cc(C(=O)N2[C@H]3CC[C@@H]2c2cnc(-c4ccc(F)cc4)nc2C3)nn1C | inconclusive: 31.6 µM [inhibitor, partial curve, poor fit]
2 | COc1cc2c(cc1-c1ccc(O)c(F)c1)NC(=O)C21CCN(C(C)=O)CC1 | active: 28.2 µM
3 | O=C(Cc1ccccc1)N1[C@H]2CC[C@@H]1c1cnc(-c3ccc(F)cc3)nc1C2 | inconclusive: 12.6 µM [inhibitor, partial curve, poor fit]
4 | O=C(Nc1ccc2c(c1)OCCO2)N1[C@H]2CC[C@@H]1c1cncnc1C2 | inactive
5 | COc1ccc(-c2cc([C@H]3CN4CC[C@H]3C[C@@H]4CNC(=O)C3CC3)n(C)n2)cc1OC | inactive
6 | CC[C@H]1CN2CC[C@H]1C[C@@H]2CNC(=O)Nc1ccc(Oc2ccccc2)cc1 | active: 28.2 µM
7 | CC1CCN(C[C@H]2CN3CC[C@H]2C[C@@H]3CNC(=O)Nc2cccc(C#N)c2)CC1 | inconclusive: 112 µM [inhibitor, single point]
8 | COc1cc2c(cc1Oc1cccc(N(C)C)c1)NC(=O)C21CCN(C(=O)CN2CCOCC2)CC1 | inactive
9 | COc1ccc(C(=O)NC[C@H]2C[C@@H]3CCN2C[C@@H]3c2cc(-c3ccccc3Br)nc(C)n2)cc1 | inconclusive: 50.1 µM [inhibitor, partial curve, poor fit]
10 | COc1cc2c(cc1Oc1cccc(N(C)C)c1)NC(=O)C21CCN(Cc2ccccc2)CC1 | active: 25.1 µM
11 | CN1Cc2ccccc2-n2ccnc2C12CCN(C(=O)c1ccc(F)c(F)c1)CC2 | inactive
12 | COc1cccc(CC(=O)N2CCCCCC2CN2CCC(OC)CC2)c1 (stereo not given) | inactive
13 | O=C(NC[C@H]1C[C@@H]2CCN1C[C@@H]2CN1CCC(Cc2ccccc2)CC1)c1ccc(C(F)(F)F)cc1 | inconclusive: 89.1 µM [inhibitor, partial curve, poor fit]
14 | COc1ccc(-c2cc([C@H]3CN4CC[C@H]3C[C@@H]4COC(=O)NC(C)C)nc(C)n2)cc1 | inconclusive: 126 µM [inhibitor, partial curve, poor fit]
15 | COc1ccc2c(c1)C1(CCN(S(=O)(=O)c3ccc(C)cc3)C1)C(=O)N2C (stereo not given) | inconclusive: 44.7 µM [inhibitor, partial curve, poor fit]
16 | CC(=O)c1ccc(NC(=O)NC[C@H]2C[C@@H]3CCN2C[C@@H]3c2cc(-c3ccco3)nc(C)n2)cc1 | inconclusive: 50.1 µM [inhibitor, partial curve, poor fit]
17 | COc1ccccc1NC(=O)N1C[C@@H]2C[C@H](C1)c1c(-c3cccs3)ccc(=O)n1C2 | inconclusive: 126 µM [inhibitor, single point]
18 | COCC(=O)N1CC[C@@H]2COCCN(Cc3cccnc3)[C@@H]2C1 | inactive
19 | COc1ccccc1-c1cc([C@H]2CN3CC[C@H]2C[C@@H]3CNCc2cccc(C#N)c2)n(C)n1 | inconclusive: 100 µM [inhibitor, partial curve, poor fit]
20 | CC[C@H]1CN2CC[C@H]1C[C@@H]2CNC(=O)Nc1ccc(C(C)(C)C)cc1 | inconclusive: 79.4 µM [inhibitor, partial curve, poor fit]
21 | O=C(c1cccc(Cl)c1)N1CCC(C(=O)O)(c2ccccc2)CC1 | inactive
22 | O=C(c1ccc(F)cc1)N1C[C@@H]2C[C@H](C1)c1c(-c3ccc(Cl)cc3)ccc(=O)n1C2 | inactive

Row | SMILES | Potency
23 | Cc1cccc([C@H]2C[C@@H](O)[C@@H](O)[C@@H]2NCC2CCCC2)c1 | active: 89.1 µM
24 | O=C(NC1CCCCC1)N1C[C@@H]2C[C@H](C1)c1c(-c3cccs3)ccc(=O)n1C2 | inconclusive: 126 µM [inhibitor, single point]
25 | COc1ccc(-c2cc([C@H]3CN4CC[C@H]3C[C@@H]4CNC(=O)N3CCOCC3)n(C)n2)cc1OC | inactive
26 | COc1cccc(CC(=O)N2[C@H]3CC[C@@H]2c2cnc(-c4ccc(F)cc4)nc2C3)c1 | inconclusive: 31.6 µM [inhibitor, full curve]
27 | CC(=O)c1ccc(NC(=O)NC[C@H]2C[C@@H]3CCN2C[C@@H]3CN2CCSCC2)cc1 | inconclusive: 126 µM [inhibitor, partial curve, poor fit]
28 | Cc1nc(-c2ccc(N(C)C)cc2)cc([C@H]2CN3CC[C@H]2C[C@@H]3CNC(=O)C(C)(C)C)n1 | active: 89.1 µM
29 | O=C([C@H]1CN2CCC1C[C@@H]2Cn1cc(CCO)nn1)N1CCOCC1 (stereo not given in full) | inconclusive: 100 µM [inhibitor, partial curve]
30 | Cc1cc(C(=O)N2[C@H]3CC[C@@H]2c2cnc(-c4ccc(F)cc4)nc2C3)n[nH]1 | inconclusive: 11.2 µM [inhibitor, full curve, poor fit]
31 | c1cc2nc(C3CCNCC3)[nH]c2cn1 | inactive
32 | O=C(Nc1ccccc1)Nc1ccc2n(c1=O)C[C@H]1C[C@@H]2CN(C(=O)c2ccccc2)C1 | inconclusive: 79.4 µM [inhibitor, partial curve, poor fit]
33 | COc1ccc2c(c1)C1(CCN(C(=O)Nc3ccc(OC)c(OC)c3)C1)C(=O)N2 (stereo not given) | inactive
34 | COC[C@H]1C[C@@H](NC2CCOCC2)[C@H](O)[C@@H]1O | inactive
35 | CCCN1CCNc2cc(Nc3ccccc3)ncc2C1 | inconclusive: 20 µM [inhibitor, full curve, poor fit]
36 | COCCNC(=O)[C@H]1CN2CC[C@H]1C[C@@H]2Cn1cc(CC2CCCCC2)nn1 | inactive
37 | CNCc1cccnc1 | inactive
38 | O=C(Nc1nccs1)[C@H]1CN2CC[C@H]1C[C@@H]2Cn1cc(-c2ccccc2)nn1 | inactive
39 | Cc1nc(-c2cccs2)cc([C@H]2CN3CC[C@H]2C[C@@H]3CNC(=O)c2ccc(N(C)C)cc2)n1 | active: 22.4 µM
40 | CC[C@H]1CN2CC[C@H]1C[C@@H]2CNC(=O)CC(C)(C)CC(=O)O | inactive
41 | CN1CCN(C(=O)Cc2c[nH]c3ncc(-c4cccc(O)c4)cc23)CC1 | active: 89.1 µM
42 | Cn1nc(-c2ccc3ccccc3c2)cc1[C@H]1CN2CC[C@H]1C[C@@H]2CNC(=O)Nc1cccc(C#N)c1 | active: 44.7 µM
43 | CCOCCCNC(=O)N1[C@H]2CC[C@@H]1c1cnc(-c3ccccc3)nc1C2 | inactive
44 | O=C(c1ccccc1)N1C[C@@H]2C[C@H](C1)c1c(-c3ccccc3F)ccc(=O)n1C2 | inactive

Row | SMILES | Potency
45 | Cc1cnc(CCN)n1CC1CC1 | inactive
46 | C=CCCOC(=O)N1C[C@H](C(=O)OCC)[C@H]2c3ccccc3N(CC3CC3)C(=O)[C@]21C | inconclusive: 28.2 µM [inhibitor, partial curve, poor fit]
47 | Cc1nc(-c2ccc(F)cc2)cc([C@H]2CN3CC[C@H]2C[C@@H]3CNS(=O)(=O)Cc2ccccc2)n1 | active: 79.4 µM
48 | c1ccc(O[C@H]2CNC3Cc4c([nH]c5ccccc45)C2C3)nc1 (stereo not given in full) | inconclusive: 70.8 µM [inhibitor, single point]
49 | CC1CCN(C[C@H]2CN3CC[C@H]2C[C@@H]3CNC(=O)Nc2ccsc2)CC1 | inconclusive: 112 µM [inhibitor, partial curve, poor fit]
50 | Cc1cc(-c2cc3c(cn2)CN(CC(C)C)CCN3)ccn1 | inconclusive: 79.4 µM [inhibitor, partial curve, poor fit]
51 | Cc1nc(-c2ccccc2Br)cc([C@H]2CN3CC[C@H]2C[C@@H]3CNS(=O)(=O)c2cccs2)n1 | active: 79.4 µM
52 | COc1ccc2c(C)c(C(=O)N3CCC(C#N)(c4ccccc4)CC3)oc2c1 | inconclusive: 79.4 µM [inhibitor, partial curve, poor fit]
53 | CCC(CC)c1cc([C@H]2CN3CC[C@H]2C[C@@H]3CNC(=O)c2ccc(N(C)C)cc2)nc(-c2ccncc2)n1 | inconclusive: 22.4 µM [inhibitor, full curve, poor fit]
54 | COc1cccc(Nc2cc3c(cn2)CN(C)CCN3C)c1 | inconclusive: 112 µM [inhibitor, single point]
55 | COc1ccc(CNC[C@H]2C[C@@H]3CCN2C[C@@H]3c2cc(C3CCCCC3)nn2C)cc1 | active: 28.2 µM
56 | Cc1ccccc1-c1cnc2[nH]cc(CC(=O)N3CCN(C)CC3)c2c1 | inconclusive: 89.1 µM [inhibitor, partial curve]
57 | CCC(CC)c1cc([C@H]2CN3CC[C@H]2C[C@@H]3CNC(=O)C2CCC2)nc(-c2ccncc2)n1 | inconclusive: 79.4 µM [inhibitor, single point]
58 | Cc1nc(-c2ccc(F)cc2)cc([C@H]2CN3CC[C@H]2C[C@@H]3CNC(=O)C2CC2)n1 | inconclusive: 126 µM [inhibitor, partial curve, poor fit]
59 | COCCNC(=O)[C@H]1CN2CCC1C[C@@H]2Cn1cc(C2(O)CCCCC2)nn1 (stereo not given in full) | inactive
60 | CN1c2ncccc2CN(Cc2ccccn2)CC[C@H]1CO | inactive
61 | CN1CCCC(C(=O)N2C3CCC2CN(Cc2cccnc2)C3)C1 (stereo not given) | inactive
62 | CCCS(=O)(=O)N1[C@H]2CC[C@@H]1c1cnc(-c3ccc(F)cc3)nc1C2 | inconclusive: 22.4 µM [inhibitor, partial curve, poor fit]
63 | COc1cc2c(cc1OCc1ccccc1)NC(=O)C21CCN(c2nc(C)cnc2C)CC1 | inconclusive: 39.8 µM [inhibitor, partial curve, poor fit]
64 | COc1ccc(C2=NOC3(CCN(Cc4cc(C)on4)C3)C2)cc1 (stereo not given) | inconclusive: 89.1 µM [inhibitor, partial curve]
65 | O=C(Nc1ccccc1)N1C[C@@H]2C[C@H](C1)c1c(-c3ccccc3F)ccc(=O)n1C2 | inactive
